This is an account of results in publication PMC9376112, “XPC–PARP complexes engage the chromatin remodeler ALC1 to catalyze global genome DNA damage repair” (Nature Communications, 2022).

Amino acid sequences for entries named in this document (tags omitted). A change or cut given only in a name is not applied to a line headed by its entry. Chains listed by the source or under a name are the forms on record and can include a tag or linker. Residues count along the entry.
UniProt Q9UGN5: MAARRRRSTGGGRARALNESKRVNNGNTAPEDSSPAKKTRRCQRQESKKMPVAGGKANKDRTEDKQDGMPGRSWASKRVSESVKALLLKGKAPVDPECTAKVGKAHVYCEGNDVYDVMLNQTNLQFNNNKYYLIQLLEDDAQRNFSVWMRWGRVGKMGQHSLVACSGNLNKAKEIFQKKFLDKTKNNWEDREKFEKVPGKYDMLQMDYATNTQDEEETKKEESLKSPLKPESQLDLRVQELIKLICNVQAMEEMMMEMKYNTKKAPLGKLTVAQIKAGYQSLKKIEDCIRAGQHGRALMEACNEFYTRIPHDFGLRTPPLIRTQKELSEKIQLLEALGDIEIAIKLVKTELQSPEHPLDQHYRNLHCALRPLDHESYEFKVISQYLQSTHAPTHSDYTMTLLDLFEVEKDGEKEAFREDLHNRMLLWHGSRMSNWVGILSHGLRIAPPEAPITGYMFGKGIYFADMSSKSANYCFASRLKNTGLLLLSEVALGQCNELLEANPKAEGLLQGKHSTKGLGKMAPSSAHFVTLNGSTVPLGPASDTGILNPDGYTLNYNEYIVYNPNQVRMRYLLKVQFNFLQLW
GFP-PARP2 (Q9UGN5-2, form named): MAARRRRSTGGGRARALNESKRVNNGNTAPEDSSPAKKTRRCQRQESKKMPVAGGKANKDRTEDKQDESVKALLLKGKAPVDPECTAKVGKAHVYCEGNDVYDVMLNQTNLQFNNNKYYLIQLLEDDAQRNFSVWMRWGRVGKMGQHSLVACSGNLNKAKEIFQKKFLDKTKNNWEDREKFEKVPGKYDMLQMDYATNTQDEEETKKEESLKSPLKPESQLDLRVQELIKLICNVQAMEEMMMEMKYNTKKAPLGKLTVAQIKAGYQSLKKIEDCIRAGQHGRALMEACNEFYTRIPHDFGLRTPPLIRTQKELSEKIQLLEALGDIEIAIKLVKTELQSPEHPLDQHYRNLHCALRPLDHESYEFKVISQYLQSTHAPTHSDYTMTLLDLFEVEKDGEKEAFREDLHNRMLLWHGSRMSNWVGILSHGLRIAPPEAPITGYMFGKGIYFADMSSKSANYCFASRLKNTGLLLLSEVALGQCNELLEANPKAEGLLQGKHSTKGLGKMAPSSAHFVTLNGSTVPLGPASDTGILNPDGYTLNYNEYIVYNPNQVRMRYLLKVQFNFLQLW
UniProt Q01831: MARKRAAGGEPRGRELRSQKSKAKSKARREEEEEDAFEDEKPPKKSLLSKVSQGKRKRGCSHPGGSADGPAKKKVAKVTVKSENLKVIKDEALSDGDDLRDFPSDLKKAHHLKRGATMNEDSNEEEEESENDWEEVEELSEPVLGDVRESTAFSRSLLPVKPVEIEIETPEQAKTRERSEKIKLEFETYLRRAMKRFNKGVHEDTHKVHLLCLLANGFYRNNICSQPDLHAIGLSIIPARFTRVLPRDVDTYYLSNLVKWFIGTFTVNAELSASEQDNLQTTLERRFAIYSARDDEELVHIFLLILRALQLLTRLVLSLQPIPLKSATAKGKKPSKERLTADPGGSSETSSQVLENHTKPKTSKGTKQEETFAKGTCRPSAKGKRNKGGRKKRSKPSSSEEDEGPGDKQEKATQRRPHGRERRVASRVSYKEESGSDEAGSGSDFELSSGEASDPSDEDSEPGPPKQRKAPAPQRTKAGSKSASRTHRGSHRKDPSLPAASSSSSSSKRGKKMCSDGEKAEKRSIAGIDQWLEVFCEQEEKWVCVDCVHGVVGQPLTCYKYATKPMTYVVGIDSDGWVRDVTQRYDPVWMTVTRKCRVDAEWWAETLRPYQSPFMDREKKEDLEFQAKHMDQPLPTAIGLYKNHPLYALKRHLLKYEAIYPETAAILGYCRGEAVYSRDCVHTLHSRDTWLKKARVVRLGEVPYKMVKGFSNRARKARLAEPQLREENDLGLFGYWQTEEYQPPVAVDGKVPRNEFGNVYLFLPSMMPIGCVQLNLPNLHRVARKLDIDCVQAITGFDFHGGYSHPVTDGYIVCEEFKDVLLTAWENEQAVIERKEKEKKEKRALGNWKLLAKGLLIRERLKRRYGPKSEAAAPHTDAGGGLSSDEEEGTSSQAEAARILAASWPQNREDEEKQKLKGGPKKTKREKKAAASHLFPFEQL
UniProt Q86WJ1: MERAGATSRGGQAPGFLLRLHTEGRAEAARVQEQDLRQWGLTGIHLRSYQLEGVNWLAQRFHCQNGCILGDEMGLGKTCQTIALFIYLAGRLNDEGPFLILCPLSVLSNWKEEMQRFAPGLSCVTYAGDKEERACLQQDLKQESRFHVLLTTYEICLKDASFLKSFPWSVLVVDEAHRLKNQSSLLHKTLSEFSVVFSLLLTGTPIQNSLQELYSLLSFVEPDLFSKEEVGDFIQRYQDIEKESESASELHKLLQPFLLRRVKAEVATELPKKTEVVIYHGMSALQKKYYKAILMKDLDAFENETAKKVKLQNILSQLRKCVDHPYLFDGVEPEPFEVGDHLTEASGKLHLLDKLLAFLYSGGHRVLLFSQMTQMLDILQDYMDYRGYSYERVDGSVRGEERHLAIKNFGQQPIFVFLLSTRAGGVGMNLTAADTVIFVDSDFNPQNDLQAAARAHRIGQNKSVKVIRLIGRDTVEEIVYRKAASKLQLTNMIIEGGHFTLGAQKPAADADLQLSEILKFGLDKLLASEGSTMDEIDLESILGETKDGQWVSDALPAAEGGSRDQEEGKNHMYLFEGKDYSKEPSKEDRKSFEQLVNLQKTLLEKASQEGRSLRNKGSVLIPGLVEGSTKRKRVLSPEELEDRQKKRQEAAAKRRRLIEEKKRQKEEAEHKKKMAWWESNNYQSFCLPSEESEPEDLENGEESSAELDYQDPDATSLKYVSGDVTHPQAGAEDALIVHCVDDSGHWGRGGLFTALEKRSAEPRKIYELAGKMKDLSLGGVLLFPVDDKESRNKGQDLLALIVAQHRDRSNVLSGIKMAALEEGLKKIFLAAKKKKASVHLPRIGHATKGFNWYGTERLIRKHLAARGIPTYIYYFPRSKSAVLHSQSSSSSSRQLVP
GFP-ALC1 Δmacrodomain: residues 1-726 of Q86WJ1
UniProt P09874: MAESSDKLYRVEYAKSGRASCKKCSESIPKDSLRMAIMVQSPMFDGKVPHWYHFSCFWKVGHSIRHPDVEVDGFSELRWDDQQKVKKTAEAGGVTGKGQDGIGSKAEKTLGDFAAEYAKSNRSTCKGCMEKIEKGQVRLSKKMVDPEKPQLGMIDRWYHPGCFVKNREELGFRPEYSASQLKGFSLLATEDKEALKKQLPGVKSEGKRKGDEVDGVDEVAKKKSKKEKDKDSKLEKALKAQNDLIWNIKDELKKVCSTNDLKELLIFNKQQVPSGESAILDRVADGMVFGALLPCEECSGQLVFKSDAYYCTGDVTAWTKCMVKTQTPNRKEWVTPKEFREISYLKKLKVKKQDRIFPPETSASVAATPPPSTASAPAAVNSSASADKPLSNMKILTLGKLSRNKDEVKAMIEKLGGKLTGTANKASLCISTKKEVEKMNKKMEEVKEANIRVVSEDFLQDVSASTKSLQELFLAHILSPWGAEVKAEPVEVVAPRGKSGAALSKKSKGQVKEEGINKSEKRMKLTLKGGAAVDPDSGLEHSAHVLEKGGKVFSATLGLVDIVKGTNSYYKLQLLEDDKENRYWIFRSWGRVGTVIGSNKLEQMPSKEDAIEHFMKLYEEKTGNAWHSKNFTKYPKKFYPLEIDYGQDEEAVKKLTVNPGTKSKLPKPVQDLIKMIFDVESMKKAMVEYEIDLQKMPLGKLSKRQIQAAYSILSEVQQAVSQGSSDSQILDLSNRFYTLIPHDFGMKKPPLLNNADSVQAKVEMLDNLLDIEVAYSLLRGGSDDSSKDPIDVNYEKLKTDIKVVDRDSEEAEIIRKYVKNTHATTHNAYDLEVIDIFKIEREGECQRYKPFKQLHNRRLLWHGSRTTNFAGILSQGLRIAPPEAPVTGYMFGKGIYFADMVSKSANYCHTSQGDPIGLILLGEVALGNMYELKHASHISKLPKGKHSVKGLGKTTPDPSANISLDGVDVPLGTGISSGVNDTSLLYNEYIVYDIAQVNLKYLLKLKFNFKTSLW

The target in one experiment is T1, GFP-PARP2 (UniProt Q9UGN5-2 1-570).
T1 construct: also called PARP2-GFP; source: U2OS (FRT) WT, stably expressed (Flp-In, doxycycline-inducible), in lysate; not shown: GFP, N-terminal, kept
Kind of experiment: co-IP; GFP-Trap IP of PARP1-GFP or GFP-PARP2 from U2OS (FRT) WT lysate (EBC-150, 150 mM NaCl, 0.5% NP-40, Benzonase), western blot; with and without UV-C (20 J/m^2, 1 h). Background: In western blotting, separated proteins are transferred to a membrane and probed.

In the next experiment the target is XPC-GFP (UniProt Q01831). Kind of experiment: co-IP; GFP-Trap IP of XPC-GFP from U2OS (FRT) XPC-KO lysate (EBC-150: 50 mM Tris pH 7.5, 150 mM NaCl, 0.5% NP-40, Benzonase), western blot; with and without UV-C (20 J/m^2, 1 h) and olaparib (10 uM).
For a further experiment, the target named is GFP-ALC1 Δmacrodomain (UniProt Q86WJ1). Kind of experiment: co-IP; GFP-Trap IP of GFP-ALC1 WT, E175Q or Δmacrodomain from U2OS (FRT) ALC1-KO lysate (EBC-150, 150 mM NaCl, 0.5% NP-40, Benzonase), western blot; with and without UV-C (20 J/m^2, 1 h).
A further experiment addresses GFP-ALC1 E175Q (UniProt Q86WJ1). The description is as above.
The next experiment addresses GFP-ALC1 WT (UniProt Q86WJ1). Described as above.

No constants are given. Whether binding was seen depends on the method and setting. Binding seen in cells or lysates may run through a third protein. Some binding calls cover weakened binding; strength is not graded here.

For the substance “ALC1 (endogenous) (from UniProt Q86WJ1 1-897) (enzyme)”, the binding entry in the experiment with GFP-PARP2 is “binds”.

For “PARP1 (endogenous) (from UniProt P09874 1-1014) (enzyme)”, the binding result is given as “binds” with XPC-GFP, “no binding” with GFP-ALC1 Δmacrodomain, “binds” in the experiment with GFP-ALC1 E175Q and “binds” with GFP-ALC1 WT.

In the case of “PARP2 (endogenous) (from UniProt Q9UGN5 1-583) (enzyme)”, the binding result is on record as “binds” with XPC-GFP, “no binding” with GFP-ALC1 Δmacrodomain, “binds” with GFP-ALC1 E175Q and “binds” in the experiment with GFP-ALC1 WT.

For “XPC (endogenous) (from UniProt Q01831 1-940)”, the binding result with GFP-PARP2 was “binds”.
